Screen size: about 360,000 compounds; about 16,000 (4.4%) were called active. This list was built around the results that the source calls inconclusive (neither active nor inactive); the mix of calls is not that of the screen. The call rests on the fitted dose curve; in most records, active means well fitted inhibition curve with a large enough effect; inconclusive means small, poorly fitted or top-dose-only effect; inactive means no such curve, though single readings can be large or run the other way. Potencies of inconclusive entries are doubtful fits and often do not repeat.
biological target: Bromodomain adjacent to zinc finger domain protein 2B (Homo sapiens) (UniProt Q9UIF8); test: qHTS Assay for Inhibitors of BAZ2B; conditions: AlphaScreen BAZ2B-H3K14Ac peptide displacement; series mostly up to 114 µM; further: nearly all actives have a fitted effect of over 60% in size
In short: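 In this displacement format the biotinylated H3(5-23) peptide acetylated at Lys14 serves as ligand at 50 nM, with BAZ2B at 50 nM in PBS pH 7.4 containing 0.01% Tween-20. Donor and acceptor beads are 10 ug/mL final.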
Potency means the concentration at half of the fitted maximal effect; tags describe the fitted curve by direction and shape.

Chain of UniProt Q9UIF8 (Q9UIF8 whole entry, looked up, the tested form may be a part): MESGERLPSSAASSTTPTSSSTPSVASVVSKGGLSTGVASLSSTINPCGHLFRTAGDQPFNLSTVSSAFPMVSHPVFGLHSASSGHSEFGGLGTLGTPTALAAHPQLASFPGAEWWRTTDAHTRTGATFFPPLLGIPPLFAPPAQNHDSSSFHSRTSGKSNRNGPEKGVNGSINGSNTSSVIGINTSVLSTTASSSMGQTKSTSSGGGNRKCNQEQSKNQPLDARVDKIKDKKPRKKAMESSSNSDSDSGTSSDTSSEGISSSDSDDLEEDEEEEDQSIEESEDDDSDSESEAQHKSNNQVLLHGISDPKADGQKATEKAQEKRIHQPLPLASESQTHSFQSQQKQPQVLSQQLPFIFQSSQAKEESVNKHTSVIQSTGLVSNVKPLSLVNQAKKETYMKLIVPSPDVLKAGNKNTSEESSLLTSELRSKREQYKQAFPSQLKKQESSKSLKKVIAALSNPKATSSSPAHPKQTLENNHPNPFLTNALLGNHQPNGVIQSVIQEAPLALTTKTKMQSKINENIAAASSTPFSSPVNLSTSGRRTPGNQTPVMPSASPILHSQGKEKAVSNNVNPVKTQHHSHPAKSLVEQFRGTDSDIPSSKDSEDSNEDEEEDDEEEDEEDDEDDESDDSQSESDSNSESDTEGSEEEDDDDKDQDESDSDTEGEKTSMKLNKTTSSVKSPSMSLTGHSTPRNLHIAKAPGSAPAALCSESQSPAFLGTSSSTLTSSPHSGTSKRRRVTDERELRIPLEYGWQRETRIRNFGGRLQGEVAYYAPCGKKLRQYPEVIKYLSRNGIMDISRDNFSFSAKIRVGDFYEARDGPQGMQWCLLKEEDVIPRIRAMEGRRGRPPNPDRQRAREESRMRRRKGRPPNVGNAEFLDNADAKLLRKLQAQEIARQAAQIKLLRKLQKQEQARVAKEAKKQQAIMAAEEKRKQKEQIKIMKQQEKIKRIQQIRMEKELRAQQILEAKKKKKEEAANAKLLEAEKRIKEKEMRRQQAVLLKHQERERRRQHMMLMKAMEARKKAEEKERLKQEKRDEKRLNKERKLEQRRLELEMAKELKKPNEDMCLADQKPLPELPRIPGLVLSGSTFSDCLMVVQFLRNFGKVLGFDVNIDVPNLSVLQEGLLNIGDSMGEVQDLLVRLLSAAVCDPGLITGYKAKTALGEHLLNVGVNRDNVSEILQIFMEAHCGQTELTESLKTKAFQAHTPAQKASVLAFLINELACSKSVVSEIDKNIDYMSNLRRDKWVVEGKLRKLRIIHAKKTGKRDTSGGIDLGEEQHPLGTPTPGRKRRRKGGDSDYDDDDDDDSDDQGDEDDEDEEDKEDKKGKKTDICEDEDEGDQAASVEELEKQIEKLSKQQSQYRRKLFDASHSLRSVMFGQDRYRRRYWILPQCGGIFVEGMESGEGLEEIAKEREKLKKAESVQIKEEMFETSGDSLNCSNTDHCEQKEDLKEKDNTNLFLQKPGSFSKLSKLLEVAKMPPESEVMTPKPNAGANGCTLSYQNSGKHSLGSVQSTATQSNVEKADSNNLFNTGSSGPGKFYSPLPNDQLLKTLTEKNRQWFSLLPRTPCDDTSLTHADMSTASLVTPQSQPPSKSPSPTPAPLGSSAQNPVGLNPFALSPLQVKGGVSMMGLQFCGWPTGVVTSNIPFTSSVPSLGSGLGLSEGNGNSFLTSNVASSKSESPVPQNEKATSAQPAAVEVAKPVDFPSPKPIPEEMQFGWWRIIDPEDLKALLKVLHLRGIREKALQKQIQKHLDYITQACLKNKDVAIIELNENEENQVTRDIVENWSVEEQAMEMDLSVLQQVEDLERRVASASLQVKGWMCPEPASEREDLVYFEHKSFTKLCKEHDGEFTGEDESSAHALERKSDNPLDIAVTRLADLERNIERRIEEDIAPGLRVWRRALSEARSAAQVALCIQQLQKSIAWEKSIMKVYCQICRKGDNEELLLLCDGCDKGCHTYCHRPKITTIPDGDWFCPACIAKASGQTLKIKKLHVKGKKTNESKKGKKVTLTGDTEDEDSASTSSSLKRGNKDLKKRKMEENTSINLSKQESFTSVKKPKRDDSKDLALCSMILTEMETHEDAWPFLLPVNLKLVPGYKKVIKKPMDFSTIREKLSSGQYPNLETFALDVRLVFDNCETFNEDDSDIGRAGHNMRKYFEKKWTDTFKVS

Row | SMILES | Potency
1 | COC(=O)CCc1c(C)[nH]c(=S)[nH]c1=O | inactive
2 | Cc1cc(C)cc(NC(=O)CSCc2cnn(-c3ccccc3)c2-n2cccc2)c1 | inconclusive: 89.1 µM [inhibitor, single point]
3 | COc1ccc(CNCC(O)COCc2cccs2)cc1 (stereo unspecified) | inconclusive: 89.1 µM [inhibitor, single point]
4 | CCOc1ccc(CCNC(=O)c2nc(-c3cccc(F)c3)n3c2CCCCC3)cc1OCC | active: 17.8 µM
5 | Cc1ccc(/C=C2\SC(N3CCN(C(c4ccccc4)c4ccccc4)CC3)=NC2=O)o1 | inconclusive: 8.91 µM [inhibitor, full curve, poor fit]
6 | CN1CCc2c(sc(NC(=O)c3cc4cc([N+](=O)[O-])ccc4s3)c2C(N)=O)C1 | inconclusive: 28.2 µM [inhibitor, partial curve]
7 | CCC(=O)Nc1cccc(C2=NOC3(C2)C[C@@H](C(N)=O)N(C(=O)CC)C3)c1 (stereo partly specified) | inactive
8 | CC1CCCN(S(=O)(=O)c2ccc(CN3C(=O)c4cccnc4C3=O)cc2)C1 (stereo unspecified) | inconclusive: 79.4 µM [inhibitor, single point]
9 | COc1ccc2oc(C(=O)Nc3ccc(N4CCOCC4)cc3)c(C)c2c1 | active: 50.1 µM
10 | C1=CN2CCC1C(c1ccccc1)C2 (stereo unspecified) | inactive
11 | C#CCN1C(=O)C(O)(CC(=O)/C=C/c2ccco2)c2ccccc21 (stereo unspecified) | inconclusive: 89.1 µM [inhibitor, single point]
12 | COc1ccc(Nc2nc(N)nc(CN(C)C3CCCCC3)n2)cc1 | active: 31.6 µM
13 | CC12CCC(c3c(C(=O)N4CCOCC4)nn(-c4ccccc4)c31)C2(C)C (stereo unspecified) | inconclusive: 89.1 µM [inhibitor, single point]
14 | Cc1ccc(/C=N/Nc2ccc(F)cc2)s1 | inconclusive: 56.2 µM [inhibitor, partial curve]
15 | CCN(CC)CCOC(=O)C(Cc1cccc2ccccc12)CC1CCCO1 (stereo unspecified) | active: 50.1 µM
16 | COc1cccc(CNc2ccc3[nH]c(=O)[nH]c3c2)c1OCc1ccccc1Cl | active: 12.6 µM
17 | COc1ccc(/C=N/Nc2ncccc2[N+](=O)[O-])c(OC)c1 | active: 39.8 µM
18 | O=C(NCCCN1CCOCC1)c1ccc(CS(=O)(=O)Cc2ccccc2Cl)o1 | inconclusive: 89.1 µM [inhibitor, single point]
19 | COc1ccc(CNc2nc3ccccc3n2Cc2ccc(C)cc2)cc1OC | inconclusive: 56.2 µM [inhibitor, partial curve]
20 | CCCOc1ccc(C(=O)NC(=S)N2CCN(c3cc4c(cc3F)c(=O)c(C(=O)O)cn4CC)CC2)cc1 | inactive
21 | Cc1cc(/C=N/n2cnnc2)c(C)n1-c1ccc(Cl)cc1 | inactive
22 | Cc1oc(-c2ccccc2F)nc1CSCC(=O)N1CCN(c2ccccc2)CC1 | inconclusive: 39.8 µM [inhibitor, partial curve]
23 | Cc1ccc(Cc2c(C)nc3nc(SCC(=O)NCCCN4CCCCCC4)nn3c2C)cc1 | inconclusive: 25.1 µM [inhibitor, full curve]

Row | SMILES | Potency
24 | Cc1ccccc1-n1c(SCC(=O)N/N=C/c2ccccc2OCC(=O)O)nc2ccccc2c1=O | inconclusive: 79.4 µM [inhibitor, single point]
25 | COc1ccccc1CNC(=S)NCc1ccc(Cl)cc1 | inconclusive: 79.4 µM [inhibitor, single point]
26 | CCc1ccc(CN(Cc2ccco2)c2cnc(S(C)(=O)=O)nc2C(=O)Nc2c(C)cccc2C)cc1 | inconclusive: 79.4 µM [inhibitor, single point]
27 | Brc1ccc(CSc2nnc(-c3ccccn3)n2Cc2ccco2)cc1 | inconclusive: 89.1 µM [inhibitor, single point]
28 | Cc1cc(OCC(=O)N2CCOCC2)cc2oc(=O)c3ccccc3c12 | inactive
29 | COCCNc1oc(-c2ccccc2Cl)nc1C#N | inconclusive: 89.1 µM [inhibitor, single point]
30 | CCC(C)(C)n1nnnc1CN1CCSCC1 | inconclusive: 89.1 µM [inhibitor, single point]
31 | Cc1c(Cl)cccc1NC(=O)Cn1cccc1 | inconclusive: 79.4 µM [inhibitor, single point]
32 | CC(=O)N1CCc2c(sc(NC(=O)CCS(=O)(=O)c3ccccc3)c2C(N)=O)C1 | inactive
33 | CSc1nnc(-c2cc3c(s2)-c2ccccc2CC3)o1 | inactive
34 | COc1ccc(NC(=S)N2CCN(S(=O)(=O)c3ccc(C)cc3)CC2)cc1 | inconclusive: 70.8 µM [inhibitor, single point]
35 | CCOc1cc(CNC(=O)c2ccccc2NC(=O)c2nsc3ccccc23)ccc1OC | inconclusive: 100 µM [inhibitor, single point]
36 | Cc1ccc(C(=O)N(Cc2ccco2)Cc2ccco2)cc1 | inconclusive: 79.4 µM [inhibitor, partial curve]
37 | Cn1c(=O)c(=O)n(C)c2cc([N+](=O)[O-])c(N3CCOCC3)cc21 | inconclusive: 89.1 µM [inhibitor, single point]
38 | c1ccc(CN2CCC(Nc3nc(-c4ccccc4)nc4ccccc34)CC2)cc1 | inconclusive: 89.1 µM [inhibitor, single point]
39 | O=C(CNC(=O)c1ccco1)N/N=C/c1ccc(O)cc1O | inconclusive: 89.1 µM [inhibitor, single point]
40 | COc1cc(Cl)ccc1OCc1cc(C(=O)N(C)CCc2c(C)n[nH]c2C)no1 | inconclusive: 89.1 µM [inhibitor, single point]
41 | CC(=O)NCc1cc(Cl)c2cccnc2c1O | active: 10 µM
42 | Cc1cc(OC(=O)c2cc(C(F)(F)F)cc(C(F)(F)F)c2)c([N+](=O)[O-])c(=O)[nH]1 | inconclusive: 100 µM [inhibitor, single point]
43 | Cc1cc(O)c(C(=O)/C=C/c2ccccc2O)c(=O)o1 | inconclusive: 89.1 µM [inhibitor, single point]
44 | O=C1ON=C(c2ccccc2)/C1=C/c1ccc(O)c(O)c1 | active: 28.2 µM
45 | CC1CCCCC1NC(=O)Cn1cnc2sccc2c1=O (stereo unspecified) | inactive
46 | CCCC(CCC)=NNc1ccc(S(=O)(=O)Nc2ccccc2OC)cc1[N+](=O)[O-] | active: 10 µM
